# Experimental data from the supplement of paper PMC9446081.
# The whole screen tested about 39,000 compounds, of which about 220 (0.56%) showed activity. This is one part of the list.
# System: Escherichia coli K-12 BW25113
# Assay: relative growth (OD600 normalised to plate interquartile mean) (fraction); higher = less growth inhibition, active = 0.2 or less
# Details: 50 µM; LB; incubation time: overnight (16-24 h)
# 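Note: static incubation at 37 °C against the wild-type strain, values averaged over two biological replicates.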
row,Compound,relative growth
1,C[C@@H]1CCCCO[C@@H](CN(C)S(=O)(=O)c2cccs2)[C@@H](C)CN([C@@H](C)CO)C(=O)c2cc(NC(=O)NC3CCCCC3)ccc2O1,inactive: 1.02
2,OCCC[C@@H](O)c1ccc(OCCO)cc1,inactive: 1
3,CCCC#Cc1cnc2c(c1)C(=O)N([C@@H](C)CO)C[C@H](C)[C@H](CN(C)S(=O)(=O)c1cccc(OC)c1)O2,inactive: 1.01
4,C[C@H]1CCCCO[C@H](CN(C)Cc2ccc(C(=O)O)cc2)[C@@H](C)CN([C@@H](C)CO)C(=O)c2cc(NC(=O)Cc3ccccc3)ccc2O1,inactive: 0.982
5,Cc1noc(C)c1S(=O)(=O)Nc1ccc2c(c1)C(=O)N([C@H](C)CO)C[C@@H](C)[C@@H](CN(C)C(=O)Nc1ccc3c(c1)OCO3)O2,inactive: 0.991
6,Cn1nc(CN2CCCC2=O)c2c1CNC2,inactive: 1.01
7,C[C@@H]1CN([C@H](C)CO)C(=O)c2cccc(NC(=O)c3ccc(-c4nccs4)cc3)c2O[C@H]1CN(C)C(=O)Nc1ccc2c(c1)OCO2,inactive: 0.995
8,C[C@@H]1CCCCO[C@@H](CN(C)S(=O)(=O)c2cccs2)[C@@H](C)CN([C@@H](C)CO)C(=O)c2cc(NS(=O)(=O)c3cn(C)cn3)ccc2O1,inactive: 1.01
9,O=C(C[C@H]1CC[C@@H]2[C@H](COC[C@@H](O)CN2C(=O)Nc2ccc(Cl)cc2)O1)NC1Cc2ccccc2C1,inactive: 0.902
10,CC(=O)OC1CC23CC24CCC(OC2OCC(O)C(O)C2O)C(C)(C)C4CCC3C2(C)CC3OC4(CC(C)C3C12C)OC(O)C1(C)OC41 (configuration not stated),inactive: 0.869
11,COCC(=O)Nc1ccc2c(c1)C(=O)N(C)[C@H]1CC[C@@H](CC(=O)N3CCc4ccccc4C3)O[C@H]1CO2,inactive: 1.02
12,C[C@@H]1CN([C@@H](C)CO)C(=O)c2cc(NC(=O)Cn3cnnn3)ccc2O[C@H]1CN(C)S(=O)(=O)c1cccs1,inactive: 0.977
13,CC(C)N(C[C@H]1O[C@@H](n2cnc3c(N)ncnc32)[C@H](O)[C@@H]1O)[C@H]1C[C@@H](CCc2nc3ccc(C(C)(C)C)cc3[nH]2)C1,inactive: 0.982
14,NC(=O)c1cc(N)ccc1F,inactive: 0.985
15,C[C@@H](N)c1cnn(-c2ccc(F)cc2)c1,inactive: 0.947
16,Cc1noc(C)c1NC(=O)Nc1ccc2c(c1)C(=O)N([C@@H](C)CO)C[C@@H](C)[C@@H](CN(C)S(=O)(=O)c1ccc(F)cc1)OCCCC[C@H](C)O2,inactive: 0.985
17,O=c1nc(NCc2ccco2)cc[nH]1,inactive: 1.05
18,Cc1ccnc(NC(=O)c2cc3sc4ccccc4c3s2)c1,inactive: 0.927
19,C[C@H]1CN([C@@H](C)CO)C(=O)c2cc(NS(=O)(=O)c3cn(C)cn3)ccc2O[C@H]1CN(C)C(=O)NC1CCCCC1,inactive: 0.987
20,Cc1ccc(S(=O)(=O)Nc2ccc3c(c2)C(=O)N([C@H](C)CO)C[C@H](C)[C@@H](CN(C)Cc2ccc(-c4ccccc4)cc2)O3)cc1,inactive: 0.987
21,C[C@H]1CN([C@@H](C)CO)C(=O)Cc2cc(NS(=O)(=O)c3cccs3)ccc2O[C@H]1CN(C)Cc1ccncc1,inactive: 1

row,Compound,relative growth
1,C[C@@H]1CN([C@@H](C)CO)C(=O)c2cc(NC(=O)CCCN(C)C)ccc2O[C@H]1CN(C)Cc1ccncc1,inactive: 1
2,C[C@@H]1CN([C@@H](C)CO)C(=O)c2cc(C#Cc3cccc(F)c3)cnc2O[C@H]1CN(C)CC1CCOCC1,inactive: 1.01
3,CC(C)CC#Cc1cnc2c(c1)C(=O)N([C@H](C)CO)C[C@H](C)[C@H](CN(C)S(=O)(=O)c1cn(C)cn1)O2,inactive: 0.982
4,NCC[C@H]1CC[C@@H](NC(=O)c2ccccc2F)[C@@H](CO)O1,inactive: 0.99
5,C[C@H](O)C#Cc1ccc2c(c1)O[C@@H](CN(C)C(=O)Cc1ccccn1)[C@H](C)CN([C@H](C)CO)S2(=O)=O,inactive: 0.99
6,C[C@H](CO)N1C[C@H](C)[C@H](CN(C)S(=O)(=O)c2ccc(Cl)cc2)OCCCC[C@H](C)Oc2ccc(NC(=O)Nc3ccc(C(F)(F)F)cc3)cc2C1=O,inactive: 1
7,COc1ccc(S(=O)(=O)Nc2ccc3c(c2)C(=O)N([C@@H](C)CO)C[C@H](C)[C@H](CN(C)C(=O)c2ccccc2)OCCCC[C@H](C)O3)cc1,inactive: 1
8,CC(=O)Oc1cccc(C)c1 [meta-CRESYL ACETATE],inactive: 0.958
9,CN(C)S(=O)(=O)Nc1ccc(C(=O)O)cc1,inactive: 0.993
10,C[C@@H]1CCCCO[C@@H](CN(C)CC2CC2)[C@H](C)CN([C@@H](C)CO)C(=O)c2cc(NC(=O)CCC(F)(F)F)ccc2O1,inactive: 0.995
11,COc1ccc(NC(=O)Nc2ccc3c(c2)C(=O)N([C@H](C)CO)C[C@H](C)[C@@H](CN(C)S(=O)(=O)c2ccc(OC)cc2)OCCCC[C@H](C)O3)cc1,inactive: 1.03
12,C[C@@H]1CN([C@H](C)CO)C(=O)Cc2cc(NC(=O)CCN3CCOCC3)ccc2O[C@H]1CN(C)S(=O)(=O)c1cccs1,inactive: 1.01
13,O=C(O)C[C@@H]1CC[C@H]2[C@@H](COC[C@H](O)CN2S(=O)(=O)c2ccc(F)cc2)O1,inactive: 0.975
14,C[C@@H]1CCCCO[C@@H](CN(C)S(=O)(=O)c2cn(C)cn2)[C@@H](C)CN([C@H](C)CO)C(=O)c2cc(NS(=O)(=O)c3cccs3)ccc2O1,inactive: 0.947
15,C[C@@H]1CN([C@@H](C)CO)C(=O)c2cccc(NC(=O)c3ccncc3)c2O[C@@H]1CN(C)Cc1ccc(-c2ccccc2)cc1,inactive: 1.01
16,C[C@@H]1CCCCO[C@@H](CN(C)S(=O)(=O)c2ccc(F)cc2)[C@H](C)CN([C@@H](C)CO)C(=O)c2cc(NS(C)(=O)=O)ccc2O1,inactive: 0.988
17,C[C@@H]1CN([C@H](C)CO)C(=O)Cc2cc(NC(=O)Cn3cnnn3)ccc2O[C@H]1CN(C)Cc1ccc(Oc2ccccc2)cc1,inactive: 0.937
18,C[C@@H]1CN([C@H](C)CO)S(=O)(=O)c2ccc(C#CCC3CCCC3)cc2O[C@@H]1CN(C)C(=O)CN(C)C,inactive: 1.01
19,CC(C)NC(=O)Nc1ccc2c(c1)C(=O)N([C@@H](C)CO)C[C@H](C)[C@@H](CN(C)Cc1ccc(Cl)c(Cl)c1)OCCCC[C@H](C)O2,inactive: 1.02
20,CO[C@H]1CN(C)C(=O)c2cc(NC(=O)Nc3ccccc3)ccc2OC[C@H](C)N(C(=O)CN(C)C)C[C@@H]1C,inactive: 0.977
21,O=C(O)C[C@](O)(Cc1ccc(O)cc1)C(=O)O,inactive: 1.01

row,Compound,relative growth
1,C[C@@H]1CCCCO[C@H](CN(C)Cc2ccccc2)[C@@H](C)CN([C@H](C)CO)C(=O)c2cc(NC(=O)NC3CCCCC3)ccc2O1,inactive: 0.976
2,COC(=O)[C@H]1CCCC[C@@H]1CN,inactive: 0.998
3,COc1ccc(S(=O)(=O)Nc2ccc3c(c2)C(=O)N([C@@H](C)CO)C[C@@H](C)[C@@H](CN(C)Cc2ccc(C(F)(F)F)cc2)OCCCC[C@@H](C)O3)cc1,inactive: 0.898
4,C[C@@H]1CN([C@@H](C)CO)C(=O)c2cc(/C=C/c3ccccc3)cnc2O[C@H]1CN(C)C(=O)C1CCOCC1,inactive: 1.01
5,C[C@H]1CN([C@@H](C)CO)C(=O)c2cc(NC(=O)Nc3ccc(C(F)(F)F)cc3)ccc2O[C@H]1CN(C)Cc1ccc2c(c1)OCO2,inactive: 0.989
6,COc1ccc(CCN2C(=O)[C@@]3(c4ccc([N+](=O)[O-])cc4)CC(=O)N(C4CCCCC4)[C@@H]3c3ccc(CO)cc32)cc1,inactive: 1.01
7,Nc1ccn([C@@H]2C[C@@H](O)[C@H](CO)O2)c(=O)n1,inactive: 1
8,Fc1ccc(Nc2ncnc3sc(-c4ccccc4)cc23)cc1,inactive: 1
9,C[C@H]1CN([C@@H](C)CO)C(=O)c2cccc(NS(=O)(=O)c3ccccc3)c2O[C@@H]1CN(C)Cc1ccc(Oc2ccccc2)cc1,inactive: 0.999
10,COc1ccc(NC(=O)Nc2ccc3c(c2)[C@H]2C[C@@H](CC(=O)N4CCN(C)CC4)O[C@@H](CO)[C@H]2O3)cc1,inactive: 0.985
11,C[C@H](CO)N1C[C@H](C)[C@@H](CN(C)C(=O)CCCN(C)C)OCCCC[C@H](C)Oc2ccc(NS(C)(=O)=O)cc2C1=O,inactive: 0.849
12,C[C@@H]1CN([C@H](C)CO)C(=O)c2cc(/C=C/c3ccccc3)cnc2O[C@@H]1CN(C)S(=O)(=O)c1cn(C)cn1,inactive: 1.01
13,CC(C)NC(=O)Nc1ccc2c(c1)C(=O)N([C@@H](C)CO)C[C@@H](C)[C@H](CN(C)S(=O)(=O)c1ccc(Cl)cc1)O2,inactive: 0.99
14,Cc1cc2nc3c(=O)[nH]c(=O)nc-3n(C[C@H](O)[C@H](O)[C@H](O)COP(=O)(O)O)c2cc1C,inactive: 0.952
15,C[C@H]1CCCC[C@]12NC(=O)NC2=O,inactive: 0.989
16,Cc1ccc2c(=O)c3ccccc3n(CCCN)c2c1C,inactive: 0.885
17,Cc1cc(C(=O)Nc2cccc3c2O[C@@H](CN(C)C(=O)Nc2ccc4c(c2)OCO4)[C@H](C)CN([C@@H](C)CO)C3=O)n(C)n1,inactive: 0.993
18,O=C(CN1CCOCC1)NCC[C@H]1CC[C@H](NC(=O)c2ccc3c(c2)OCO3)[C@@H](CO)O1,inactive: 1.01
19,C[C@@H]1CN([C@H](C)CO)C(=O)c2cc(NC(=O)Nc3cccc4ccccc34)ccc2O[C@@H](C)CCCCO[C@H]1CN(C)Cc1ccc(Cl)c(Cl)c1,inactive: 1.01
20,CN1C(=O)c2cc(NC(=O)c3ccc(F)cc3)ccc2OC[C@@H]2O[C@@H](CC(=O)N3CCOCC3)CC[C@@H]21,inactive: 0.963
